Values quoted from earlier work as cited in paper PMC11006913.
Positions count from the first letter of the chain named. Some of the results follow.

Legend:
Conditions in all cases: PBM; conditions not shown; double strand, one strand shown; scale: upbm affinity estimate (log intensity, higher = more binding, comparable within an allelic series)
[1] = target: HOXD13 I297V (Homo sapiens) (UniProt P35453)
[2] = target: HOXD13 I322L (Homo sapiens) (UniProt P35453)
[3] = target: HOXD13 N298S (Homo sapiens) (UniProt P35453)
[4] = target: HOXD13 Q325K (Homo sapiens) (UniProt P35453)
[5] = target: HOXD13 Q325R (Homo sapiens) (UniProt P35453)
[6] = target: HOXD13 R306W (Homo sapiens) (UniProt P35453)
[7] = target: HOXD13 S316C (Homo sapiens) (UniProt P35453)
[8] = target: T1, HESX1 N125S (Homo sapiens) (UniProt Q9UBX0)
T1 sequence: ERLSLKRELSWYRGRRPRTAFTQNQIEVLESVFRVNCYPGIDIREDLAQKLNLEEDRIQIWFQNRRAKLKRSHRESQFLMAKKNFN

[9] = target: PROP1 R112Q (Homo sapiens) (UniProt O75360)
[10] = target: PROP1 R99Q (Homo sapiens) (UniProt O75360)
PBX4 (Homo sapiens) = target: T2, PBX4 (Homo sapiens) (UniProt Q9BYU1)
T2 sequence: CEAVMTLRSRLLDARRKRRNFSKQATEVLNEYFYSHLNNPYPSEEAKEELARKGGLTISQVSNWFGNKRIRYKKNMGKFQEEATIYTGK

[11] = target: T3, PBX4 R215Q (Homo sapiens) (UniProt Q9BYU1)
T3 sequence: T2 sequence with R19Q

[12] = target: T4, HESX1 R160C (Homo sapiens) (UniProt Q9UBX0)
T4 sequence: T1 sequence with S31N, R66C

GTCGTAAA [8-mer GTCGTAAA]
binding signal [1]: 12.7
binding signal [2]: 12.9
binding signal [3]: 13
binding signal [4]: 10.6
binding signal [5]: 11
binding signal [6]: 11.5
binding signal [7]: 12.7

CCGGCGCG [8-mer CCGGCGCG]
binding signal [1]: 9.31
binding signal [2]: 9.37
binding signal [3]: 9.23
binding signal [4]: 9.27
binding signal [5]: 9.31
binding signal [6]: 9.37
binding signal [7]: 9.39

CGGTGACC [8-mer CGGTGACC]
binding signal [1]: 9.21
binding signal [2]: 9.22
binding signal [3]: 9.17
binding signal [4]: 9.3
binding signal [5]: 9.26
binding signal [6]: 9.31
binding signal [7]: 9.25

CTTTACGA [8-mer CTTTACGA]
binding signal [1]: 12.1
binding signal [2]: 12.2
binding signal [3]: 12.4
binding signal [4]: 10.2
binding signal [5]: 10.8
binding signal [6]: 11.1
binding signal [7]: 12

CCCTCCGG [8-mer CCCTCCGG]
binding signal [1]: 9.25
binding signal [2]: 9.2
binding signal [3]: 8.96
binding signal [4]: 9.59
binding signal [5]: 9.3
binding signal [6]: 9.24
binding signal [7]: 9.14

CCTATAAA [8-mer CCTATAAA]
binding signal [1]: 13
binding signal [2]: 11.8
binding signal [3]: 13.2
binding signal [4]: 11.9
binding signal [5]: 12
binding signal [6]: 12.5
binding signal [7]: 12.9

AGCCCGGG [8-mer AGCCCGGG]
binding signal [1]: 9.5
binding signal [2]: 9.53
binding signal [3]: 9.54
binding signal [4]: 9.67
binding signal [5]: 9.51
binding signal [6]: 9.47
binding signal [7]: 9.55

GTTTACGA [8-mer GTTTACGA]
binding signal [1]: 12.6
binding signal [2]: 12.7
binding signal [3]: 12.8
binding signal [4]: 10.4
binding signal [5]: 11.1
binding signal [6]: 11.6
binding signal [7]: 12.6

CCCCTCAA [8-mer CCCCTCAA]
binding signal [1]: 9.54
binding signal [2]: 9.46
binding signal [3]: 9.33
binding signal [4]: 9.7
binding signal [5]: 9.27
binding signal [6]: 9.45
binding signal [7]: 9.34

AATTAGGT [8-mer AATTAGGT]
binding signal [8]: 11.1
binding signal [3]: 11
binding signal [5]: 10.9
binding signal [9]: 12.5
binding signal [10]: 12

TATGATGA [8-mer TATGATGA]
binding signal [8]: 8.94
binding signal (PBX4 (Homo sapiens)): 10.6
binding signal [11]: 10.2

AGGCGCTC [8-mer AGGCGCTC]
binding signal [1]: 9.39
binding signal [2]: 9.56
binding signal [3]: 9.26
binding signal [4]: 9.33
binding signal [5]: 9.33
binding signal [6]: 9.36
binding signal [7]: 9.4

CGCTTTCC [8-mer CGCTTTCC]
binding signal [1]: 9.28
binding signal [2]: 9.19
binding signal [3]: 9.21
binding signal [4]: 9.52
binding signal [5]: 9.5
binding signal [6]: 9.34
binding signal [7]: 9.26

ATTTTATA [8-mer ATTTTATA]
binding signal [1]: 12.4
binding signal [2]: 11.4
binding signal [3]: 12.6
binding signal [4]: 12.6
binding signal [5]: 12.5
binding signal [6]: 12
binding signal [7]: 12.3

GTTTAATA [8-mer GTTTAATA]
binding signal [1]: 12.2
binding signal [2]: 11.7
binding signal [3]: 12.5
binding signal [4]: 12.1
binding signal [5]: 12.2
binding signal [6]: 11.7
binding signal [7]: 12.1

ATTGTAAA [8-mer ATTGTAAA]
binding signal [1]: 12.3
binding signal [2]: 12.3

TCATAAAA [8-mer TCATAAAA]
binding signal [1]: 12.7
binding signal [2]: 11.3
binding signal [3]: 12.9
binding signal [4]: 11
binding signal [5]: 11.9
binding signal [6]: 12.1
binding signal [7]: 12.6

AATAAAAC [8-mer AATAAAAC]
binding signal [1]: 12.3
binding signal [2]: 11.1
binding signal [3]: 12.6
binding signal [4]: 11.5
binding signal [5]: 12.1
binding signal [6]: 11.7
binding signal [7]: 12.3

ATTAGGCG [8-mer ATTAGGCG]
binding signal [12]: 10.2

ACTTTTTA [8-mer ACTTTTTA]
binding signal [1]: 11.3
binding signal [2]: 11
binding signal [3]: 11.4
binding signal [4]: 10.8
binding signal [5]: 11
binding signal [6]: 10.6
binding signal [7]: 11.1

CTCGCGAG [8-mer CTCGCGAG]
binding signal [1]: 9.58
binding signal [2]: 9.54
binding signal [3]: 9.43
binding signal [4]: 9.36
binding signal [5]: 9.36
binding signal [6]: 9.61
binding signal [7]: 9.61

CCAAGGGC [8-mer CCAAGGGC]
binding signal [1]: 9.67
binding signal [2]: 9.5
binding signal [3]: 9.53
binding signal [4]: 9.75
binding signal [5]: 9.59
binding signal [6]: 9.47
binding signal [7]: 9.58

TCCATAAA [8-mer TCCATAAA]
binding signal [1]: 12.3
binding signal [2]: 11.1
binding signal [3]: 12.6
binding signal [4]: 10.3
binding signal [5]: 10.8
binding signal [6]: 11.7
binding signal [7]: 12.2

TCGTTAAA [8-mer TCGTTAAA]
binding signal [1]: 12.5
binding signal [2]: 12.6
binding signal [3]: 12.6
binding signal [4]: 10.7
binding signal [5]: 11.3
binding signal [6]: 11.5
binding signal [7]: 12.3

TAATAAAA [8-mer TAATAAAA]
binding signal [1]: 12.8
binding signal [2]: 11.6
binding signal [3]: 13
binding signal [4]: 11.3
binding signal [5]: 12.6
binding signal [6]: 12.4
binding signal [7]: 12.8

CGCTCCCC [8-mer CGCTCCCC]
binding signal [1]: 9.36
binding signal [2]: 9.37
binding signal [3]: 9.24
binding signal [4]: 9.33
binding signal [5]: 9.29
binding signal [6]: 9.28
binding signal [7]: 9.25

CCCACGGC [8-mer CCCACGGC]
binding signal [1]: 9.11
binding signal [2]: 9.21
binding signal [3]: 9.09
binding signal [4]: 9.27
binding signal [5]: 9.02
binding signal [6]: 9.26
binding signal [7]: 9.2

AATACATG [8-mer AATACATG]
binding signal [1]: 11.2
binding signal [2]: 10.9
binding signal [3]: 11.1
binding signal [4]: 10.8
binding signal [5]: 11.1
binding signal [6]: 10.7
binding signal [7]: 11

CCACAGGG [8-mer CCACAGGG]
binding signal [1]: 9.33
binding signal [2]: 9.42
binding signal [3]: 9.36
binding signal [4]: 9.7
binding signal [5]: 9.56
binding signal [6]: 9.45
binding signal [7]: 9.23

CTATAAAA [8-mer CTATAAAA]
binding signal [1]: 12.9
binding signal [2]: 11.8
binding signal [3]: 13.1
binding signal [4]: 12.1
binding signal [5]: 12
binding signal [6]: 12.6
binding signal [7]: 12.9

GTGTATTA [8-mer GTGTATTA]
binding signal [1]: 11.2
binding signal [2]: 10.9
binding signal [3]: 11.4
binding signal [4]: 11.6
binding signal [5]: 11.8
binding signal [6]: 10.8
binding signal [7]: 11.1

TCCTATAA [8-mer TCCTATAA]
binding signal [1]: 11.9
binding signal [2]: 11
binding signal [3]: 12
binding signal [4]: 11.1
binding signal [5]: 11.2
binding signal [6]: 11.2
binding signal [7]: 11.8

CCATAAAC [8-mer CCATAAAC]
binding signal [1]: 12.6
binding signal [2]: 11.4
binding signal [3]: 12.8
binding signal [4]: 10.4
binding signal [5]: 11
binding signal [6]: 11.7
binding signal [7]: 12.5
